Assay results reported in ChEMBL document CHEMBL4888484, “Replenishing the malaria drug discovery pipeline: Screening and hit evaluation of the MMV Hit Generation Library 1 (HGL1) against asexual blood stage Plasmodium falciparum ,using a nano luciferase reporter read-out” (2022).
Among all 150,000 compounds or so, about 540 (0.36%) showed an effect of 50% or more. The list shows a part of the results.

tested on: Plasmodium falciparum; test: Primary screen in NF54 nanoGlo assay, in single point, at 2uM, 72h; a lower Z score goes with more inhibition; format: functional, Erythrocyte; conditions: timepoint 72 hour

| Structure (SMILES) | % Inhibition | Z score |
| --- | --- | --- |
| Cc1cc([C@H](C)NCC(=O)N2CCC3(CC2)OCCO3)c(C)s1 | -12% | 1.41 |
| COC1CCN(C2CN(C(=O)COc3ccc(Cl)cc3)C2)CC1 | -4% | 0.84 |
| CCNC(=O)N1C[C@@H](c2cc(F)cc(F)c2)[C@@H]2[C@H]1C1CCN2CC1 | -3% | 0.41 |
| O=C(NCc1nc(=O)o[nH]1)[C@H]1C[C@@H]1c1ccc(F)cc1F | 4% | -0.56 |
| COc1ccccc1[C@@H]1CN(Cc2nnc(C)s2)[C@@H]2C3CCN(CC3)[C@@H]21 | -15% | 1.49 |
| CCS(=O)(=O)N1C[C@@H](c2ccc(F)cc2)[C@@H]2[C@H]1C1CCN2CC1 | 1% | -0.13 |
| CCN1CCOC[C@H]1C(=O)n1nc2cc(OC)ccc2c1N | -7% | 1.24 |
| CCn1c(=O)oc2ccc(C(=O)NCCCc3ccccc3)cc21 | 3% | -0.36 |
| C[C@@H](C(N)=O)N1CCOC2(CCCCCC2)C1 | -15% | 1.91 |
| CN(C(=O)Cc1cccnc1)[C@H]1CCCN(CCCc2ccccc2)C1 | -9% | 1.45 |
| COc1ccc2c(-c3c(C#N)c(N)nc4c3[C@@H]3CC[C@H](C4)N3C)n[nH]c2c1 | 7% | -0.86 |
| COC(=O)[C@H]1[C@@H](C(=O)NC2CC(=O)N(C)C2)[C@@H]2CC[C@@H]1N2C(=O)OC(C)(C)C (stereo not given in full) | -10% | 1.51 |
| O=C(CCc1nc(C2=CCN(Cc3ccc(Cl)cc3)CC2)no1)N1CCc2ccccc2C1 | -9% | 1.2 |
| OC(c1ccccc1)(c1ccccc1)[C@H]1C[N+]2(Cc3ccccc3)CCC1CC2 | 11% | -1.25 |
| Cc1cc(Cl)c(C(=O)N2CCC[C@H](c3n[nH]c(=O)o3)C2)cc1C | -5% | 0.9 |
| CC(C)CCOc1ccc(CCN)cc1 | 3% | -0.48 |
| O=C(Nc1nnc(N2CC3CC(C2)c2cccc(=O)n2C3)s1)C(F)(F)F (stereo not given) | 34% | -3.88 |
| O=S1(=O)N[C@@H]2CN(CC3CC3)C[C@@H]2Oc2ncccc21 | -11% | 1.59 |
| NCCc1ccc(F)c(Br)c1 | -13% | 1.15 |
| CC(C)CC[C@H](C)NC(=O)c1cccc2oc(=O)[nH]c12 | -6% | 0.57 |
| CO[C@H]1C[C@H]2CC[C@@H](C1)N2CCCOc1ccc(F)cc1 | 7% | -1.23 |
| CC(C)CN1CC[C@H](C(=O)N2CCC3(CC2)OCC(C)(C)CO3)C1 | -6% | 0.57 |

| Structure (SMILES) | % Inhibition | Z score |
| --- | --- | --- |
| CCOc1ccc2nc(CN3CCCN4CCC[C@H]4C3)ccc2c1 | -12% | 1.45 |
| Cc1ncc(CN2CC3(CCCOC3)C2)s1 | -2% | 0.33 |
| FC(F)(F)C1CCCC(NC2CCOC(C3CC3)C2)C1 (stereo not given) | -2% | 0.3 |
| CC(NCc1nnnn1C(C)C)C(C)c1ccccc1 (stereo not given) | 7% | -1 |
| O=c1[nH]c2cc(S(=O)(=O)N3CC[C@H](Oc4ncc(F)cn4)C3)ccc2o1 | -2% | 0.4 |
| CC(C)=CCN1C[C@@H]2CC[C@H]1CN(Cc1cc(=O)[nH]c(=O)[nH]1)C2 | 5% | -0.64 |
| COC(C)(C(=O)N1CCCC(c2n[nH]c(=O)o2)C1)c1ccccc1F (stereo not given) | -5% | 0.74 |
| Cc1nc(CN2CCC[C@H](N(C)C(=O)Cc3cccc(OC(C)C)c3)C2)no1 | -7% | 1.01 |
| O=C(CC1CCC1)N1CCN([C@H]2CN3CCC2CC3)CC1 | 4% | -0.72 |
| Cc1ccncc1CN1CCC(CF)CC1 | -1% | 0.25 |
| O=C(Nc1ccccc1Cl)N1C2CCC1c1cn[nH]c1C2 (stereo not given) | 33% | -3.78 |
| C[C@@H](Cc1cccc(Cl)c1)NC(=O)CCN1CCOC1=O | -3% | 0.34 |
| Cc1cc(-c2cccc3c2CCNC3)ccc1O | -8% | 1.58 |
| Cc1noc(C)c1C(=O)N1C[C@@H]2CC[C@H]1CN(Cc1cscn1)C2 | -11% | 1.84 |
| Cc1ccsc1CN1C[C@@H]2OC(=O)N(Cc3ccccn3)[C@@H]2C1 | 4% | -0.54 |
| Cc1cccc(-n2nnnc2C2(NC(C)C)CCCCC2)c1 | 1% | -0.12 |
| COCCn1cncc1CN1[C@@H]2CC[C@H]1C[C@@H](c1ccc(F)c(C)c1)C2 | 0% | -0.02 |
| O=C(c1ccc(COc2ccc(Br)cc2)o1)N1CCC2(CC1)OCCO2 | -11% | 1.1 |
| COc1ncc(CN2CCC3(CCCC3)C2)cn1 | -2% | 0.24 |
| CCCN1CCCN(C(=O)Cc2c(C)nn(C)c2C)CC1 | -9% | 0.87 |
| Oc1ccccc1C[C@H]1CC2CCN1CC2 | -1% | 0.12 |
| O=C(CCc1nnc2ccc(N3CCCC3)nn12)N1CCC2(CC1)OCCO2 | -21% | 2.02 |

| Structure (SMILES) | % Inhibition | Z score |
| --- | --- | --- |
| Cn1c(N2CCN3CCCC[C@H]3C2)c(C#N)c(=O)n(C)c1=O | -8% | 1.18 |
| Cc1ccccc1C[C@H](C)NC(=O)C(C)(C)NC(=O)C(F)(F)F | -4% | 0.33 |
| CC(Cc1ccc(F)cc1Cl)NC(C)c1ncn(C)n1 (stereo not given) | -8% | 1.07 |
| CCn1cc(C(=O)NCc2ccccc2C)c2cccnc21 | -3% | 0.31 |
| O=C(Nc1nccs1)C1CC2CCC1N2c1cnc2ccccc2n1 (stereo not given) | -10% | 1.33 |
| C[C@@H](Cc1ccccc1F)NCCn1ccnc1 | -3% | 0.34 |
| COCc1n[nH]c([C@@H](N)Cc2ccccc2)n1 | 1% | -0.1 |
| Cc1ccc(Cn2cccc2C(=O)C(=O)N2CCC3(CC2)OCCO3)cc1 | -12% | 1.11 |
| Fc1cc(CNCC(F)F)ccc1Cl | -7% | 0.98 |
| CC[C@](NC(=O)c1ccn(C(C)C)n1)(C(=O)OC)c1ccccc1 | 4% | -0.51 |
| CN(C)c1ccc(C(=O)NC[C@H]2C[C@@H]3CC[N@]2C[C@@H]3CN2CCN(c3ccccn3)CC2)cc1 | 33% | -3.71 |
| O=C(CCn1cncn1)N1C[C@@H](c2ccc(F)cc2)[C@@H]2[C@H]1C1CCN2CC1 | 4% | -0.35 |
| O=C(Cc1ccc(-c2ccccc2)cc1)N1CCC2(CC1)OCCO2 | 14% | -1.8 |
| CC(C)n1cncc1CN1CC2(CC(F)C2)C1 | 9% | -0.95 |
| N#Cc1ccc(N2C[C@H](c3ccccc3)[C@@H]3[C@H]2C2CCN3CC2)nc1 | -11% | 1.41 |
| C[N+]12CCC(CC1)[C@@H](C(O)(c1cccc(Cl)c1)c1cccc(Cl)c1)C2 | 35% | -6.68 |
| c1cc2c(c(-c3nccc4ccccc34)c1)CCNC2 | -1% | 0.15 |
| Cc1c(C(=O)NCC2(C3CC3)CC2)cnn1C1CCOCC1 | 4% | -0.81 |
| Cc1nnc(N2CCC[C@H]2c2cncc(Br)c2)nc1C | 5% | -0.88 |
| Cn1nc(C(=O)N2C[C@@H]3NCCO[C@H]3C2)c2ccccc2c1=O | -11% | 2.25 |
| CN1CCN(c2ccc3ncc(=O)n(C)c3n2)CC1 | -3% | 0.57 |
| COc1ccc(S(=O)(=O)N2CCC3CCC(C2)N3C(C)C)cn1 (stereo not given) | -1% | 0.13 |

| Structure (SMILES) | % Inhibition | Z score |
| --- | --- | --- |
| Cn1cccc1C(=O)C(=O)N1C[C@@H](c2cc(F)cc(F)c2)[C@@H]2[C@H]1C1CCN2CC1 | -6% | 0.95 |
| CC(C)(C)c1ccc(OC(=O)NC(C(F)(F)F)C(F)(F)F)cc1 | -1% | 0.24 |
| C[C@@H](Cc1cccc(Br)c1)NCCN1C(=O)CNC1=O | 3% | -0.31 |
| Cc1cc(CC(=O)N(C)CCN(C)C2CC2)on1 | -1% | 0.06 |
| O=C(Nc1ccc(Cl)c(Cl)c1)[C@@H]1CCCCN1CCn1c(=O)oc2cccnc21 | -9% | 1.19 |
| COC(c1ccccc1)C(C)NCc1sc(C)nc1C (stereo not given) | -10% | 1.32 |
| Cn1cncc1CN1C[C@H]2CC[C@@H](C1)N(Cc1ccccn1)C2 | -2% | 0.23 |
| Cc1nc2ccccc2c(=O)n1N1C[C@@]1(C)C#Cc1ccccc1 | -39% | 4.57 |
| O=C(Oc1cccc2cccnc12)N1CCCCC1 | 4% | -0.73 |
| CC(C)CN(C1CCN(C)CC1)C1CN(C(=O)Cc2c[nH]c3ccccc23)C1 | 4% | -0.7 |
| CCOc1cc(=O)c(C(=O)N2CCC3(CC2)OCCO3)nn1-c1ccc(F)c(F)c1 | 28% | -3.68 |
| COCc1ccc(C(=O)N2C[C@H](c3ccccc3)[C@@H]3[C@H]2C2CCN3CC2)o1 | -2% | 0.2 |
| Cc1noc([C@@H]2CN(C(=O)Cc3ccccc3C)CCCN2CC(C)C)n1 | -2% | 0.4 |
| CCn1c(=O)oc2cc(NS(=O)(=O)c3cc(C)cc(C)c3C)ccc21 | 28% | -3.81 |
| Cc1cc(C(=O)N2CCC(c3n[nH]c(=O)o3)CC2)c(C)cc1Cl | -5% | 0.7 |
| CC1(C)CCc2[nH]c(=O)c(C(=O)N3CCC(Nc4ccccc4Cl)CC3)cc2C1 | -4% | 0.49 |
| Cc1cc(C)c(CNc2ccc(C#N)cn2)c(=O)[nH]1 | -8% | 1.16 |
| Cc1nonc1-c1nc(-c2c(C)ncc3c2CCNC3)no1 | -5% | 0.69 |
| CCCC(NC1CCN2CCCC2C1)c1ccccn1 (stereo not given) | -11% | 1.57 |
